# Experimental data from article PMC6919601, “Identification of Plasmodium dipeptidyl aminopeptidase allosteric inhibitors by high throughput screening” (PLoS ONE, 2019).
# In all, about 110,000 compounds went through this assay and about 230 (0.21%) showed an effect of 50% or more. This is one part of the list.
# Target: DPAP1 (Plasmodium falciparum, UniProt Q8IIJ9)
# Assay: primary screen, percent inhibition; read by cleavage of a fluorogenic dipeptide substrate; higher = more effect of the substance
# Design: species or system P. falciparum D10 trophozoite lysates; single well
# 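Note: 30 min substrate incubation versus DMSO and 10 µM JCP410 controls.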
# Chain of DPAP1 (Q8IIJ9 whole entry, looked up): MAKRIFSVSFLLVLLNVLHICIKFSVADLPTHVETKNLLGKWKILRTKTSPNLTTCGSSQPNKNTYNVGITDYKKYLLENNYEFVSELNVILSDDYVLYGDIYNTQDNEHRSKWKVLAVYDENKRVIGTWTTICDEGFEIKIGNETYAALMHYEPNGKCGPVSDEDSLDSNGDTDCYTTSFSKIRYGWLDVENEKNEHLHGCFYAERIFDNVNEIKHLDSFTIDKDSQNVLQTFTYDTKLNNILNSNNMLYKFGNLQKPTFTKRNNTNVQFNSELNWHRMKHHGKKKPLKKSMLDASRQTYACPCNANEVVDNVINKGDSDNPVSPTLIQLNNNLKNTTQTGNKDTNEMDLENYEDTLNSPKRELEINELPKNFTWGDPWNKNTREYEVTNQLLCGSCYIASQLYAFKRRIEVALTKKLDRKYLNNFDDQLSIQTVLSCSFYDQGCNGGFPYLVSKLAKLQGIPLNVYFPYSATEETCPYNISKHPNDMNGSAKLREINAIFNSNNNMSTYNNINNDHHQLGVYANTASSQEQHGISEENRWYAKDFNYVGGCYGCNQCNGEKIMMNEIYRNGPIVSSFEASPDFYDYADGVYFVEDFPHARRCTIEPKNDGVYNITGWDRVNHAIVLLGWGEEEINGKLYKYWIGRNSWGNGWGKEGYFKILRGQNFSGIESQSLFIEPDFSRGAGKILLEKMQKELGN
row,Compound,% Inhibition @ 10 uM
1,COCCO/C(O)=C1\C(C)=NC2=C(C(=O)CC(C)(C)C2)C1c1ccc(Cl)c(Cl)c1 (stereo not shown),-1.85%
2,CC(C)(C)c1ccc(C(=O)Nc2cccnc2)cc1,-4.33%
3,Cc1ccc(S(N)(=O)=O)cc1NC(=O)Nc1ccccc1,0.727%
4,COc1ccc(NC(=O)C2CCN(C(=O)c3ccccc3C)CC2)cc1OC,-2.29%
5,CCCNC(=O)C(C)Sc1nc2nc(C)cc(C)n2n1 (stereo not shown),2.79%
6,COC(=O)c1ccc(C)c(S(=O)(=O)N2CCCCC2)c1,-3.44%
7,COc1ccc2c(c1)c(/C=C/c1nc3ccccc3c(=O)n1C)c(C)n2C,-3.37%
8,Cc1cc(NC(=O)c2cc(-c3ccccc3F)no2)nn1CC(=O)N1CCCCC1C (stereo not shown),0.807%
9,COCCCN1C(=S)NC2c3cc(Br)ccc3OC1(C)C2C (stereo not shown),-2.1%
10,Cc1cc(C)c(S(=O)(=O)N2CCCC2)cc1S(=O)(=O)N1CCCC1,0.827%
11,CCOC(=O)c1c(C)c(-c2ccccc2)n(CC(=O)Nc2cc(C)ccn2)c1C,0.0579%
12,COc1ccc(-c2occ(C(=O)O)c2C(=O)O)cc1,10.8%
13,COc1ccc(-c2c(C)oc3c(CN4CCCCC4C)c(O)ccc3c2=O)cc1OC (stereo not shown),5.31%
14,CC1CC(Nc2ccccc2)c2ccccc2N1C(=O)C(C)(C)C (stereo not shown),-10.5%
15,CS(=O)(=O)N(CC(=O)NC1CC2CCC1C2)c1cccc(F)c1 (stereo not shown),-8.42%
16,COCCCNC(=O)c1cc2c(=O)n3ccccc3nc2n1C,-1.44%
17,O=Cc1cc(Cl)c2c(c1)OCO2,23.6%
18,Cn1nc(C(=O)Nc2cccnc2)c2ccccc2c1=O,0.628%
19,COc1ccc(Cl)cc1NC(=O)C1C2C=CC(O2)C1C(=O)O (stereo not shown),-5.46%
20,COc1ccccc1CNC(=O)c1nccnc1CO,-2.88%
21,N#Cc1ccccc1NC(=O)C(c1ccccc1)c1ccccc1,-3.13%
22,Cc1ccccc1C(=O)Nc1sc2c(c1C(=O)NCc1ccco1)CCC2,1.02%

row,Compound,% Inhibition @ 10 uM
1,COCCC(=O)NC12CC3CC(CC(C3)C1)C2,0.526%
2,O=C(COc1ccccc1Cl)Nc1cccc(-c2nc3ncccc3o2)c1,10.8%
3,CC(NC(=O)C(=O)NCc1ccc2c(c1)OCO2)C(c1cccs1)N1CCOCC1 (stereo not shown),-1.08%
4,Oc1ccccc1C1N=C(c2ccccc2)NC(c2ccccc2)=N1,-4.06%
5,COc1ccc(C[C@@H]2NCC[C@]3(O)CCCC[C@H]23)cc1,-1.91%
6,Cc1nnc(SCC(=O)N2CCC3(CC2)OCCO3)c2nn(-c3ccccc3)c(C)c12,0.535%
7,O=C(COc1ccccc1Cl)NCc1nc(-c2ccccc2)no1,3.74%
8,O=C(NCCN1C(=O)C2C3C=CC(C3)C2C1=O)N1CCOCC1 (stereo not shown),0.565%
9,CCOc1ccc(/C=C/C(=O)c2ccc(OC)cc2)cc1,1.49%
10,CC(C)Oc1ccc(CNC(=O)C2CCCN(c3nnc(-n4cccc4)s3)C2)cc1 (stereo not shown),-3.34%
11,CCOC(=O)c1c(C)c(C(=O)O)n(C)c1C,4.63%
12,Cc1ccc(-c2nc(CSCC(=O)NCCN3CCOCC3)c(C)o2)cc1,0.689%
13,Cn1c(=O)[nH]c(=O)c2c1nc(N1CCN(C(=O)c3ccco3)CC1)n2CCSc1ncccn1,4%
14,Cc1ccc(N2CCN(S(=O)(=O)N3CCCCC3)CC2)cc1C,0.145%
15,Fc1ccc(/C=C/C2=NN(c3ccc(F)cc3)C(c3ccc(F)cc3)C2)cc1 (stereo not shown),-5.11%
16,CCOc1ccc2nc3c(cc2c1)c(C)nn3-c1ccccc1,5.21%
17,CCOc1ccccc1NC(=O)C1=C(C)NC(=O)NC1c1ccc(OC)cc1OC (stereo not shown),-0.865%
18,Cc1cc(O)n2nc(-c3ccc(-c4ccccc4)cc3)cc2n1,-1.85%
19,CC1(C)CC(=O)c2c(-c3ccc([N+](=O)[O-])cc3)coc2C1,4.14%
20,COc1ccc(OC)c(CNCc2c(C(=O)O)c(C)n(Cc3ccc(F)cc3)c2C)c1,-0.23%
21,O=C(c1ccccc1)c1ccc2nc(N3CCOCC3)c3nncn3c2c1,4.88%
22,CC(C)OC(=O)c1cccc(Cn2nnc3sc4c(c3c2=O)CCCC4)c1,4%

row,Compound,% Inhibition @ 10 uM
1,CCOCCCNc1ncc2c(n1)CC(c1ccccc1Cl)CC2=O (stereo not shown),-2.98%
2,Cc1ccc2nc(N3CCCCC3)nc(-c3ccccc3)c2c1,-5.38%
3,O=C(Nc1ccccc1Cl)c1cccc(C(=O)Nc2ccccc2Cl)c1,-9%
4,Cc1ccc(NC(=O)CN2C(=O)N/C(=C/c3cccc(Br)c3)C2=O)cc1,-8.28%
5,O=c1oc2ccc3ccccc3c2cc1-c1nc(-c2ccc([N+](=O)[O-])cc2)cs1,-2.51%
6,O=C1NC(c2cccnc2)C(C(=O)c2cccs2)=C1O (stereo not shown),-2.28%
7,Cc1nn(CC(=O)N2CCCCCC2)c(=O)c2c1sc1ccccc12,0.697%
8,COCc1cc(C)nc2sc(C(C)=O)c(NC(=O)c3ccccc3)c12,1.76%
9,CCc1nnc(NC(=O)c2cc3c(s2)-c2ccc(Cl)cc2S(=O)(=O)C3)s1,4.14%
10,CCN(CC)CC(=O)Nc1ccc2c(c1)Nc1ccccc1CC2,-5.62%
11,CCn1c(SCC(=O)Nc2c(C)cc(C)cc2C)nc2c1c(=O)n(C)c(=O)n2C,4.67%
12,CCc1ccc(OCC(=O)NC2CC(C)(C)NC(C)(C)C2)c(Br)c1,5.25%
13,COc1ccc(CC(=O)Nc2ccc(S(=O)(=O)Nc3ccc(C)cc3C)cc2)cc1,-3.41%
14,CCOc1ccc2nc(NC(=O)Cn3nc(Cc4cccnc4)c4ccccc4c3=O)sc2c1,-1.21%
15,N#Cc1c(SCC(=O)Nc2nccs2)nc2c(c1-c1ccco1)CCCC2,-3.06%
16,Cc1cc(OCC(=O)Nc2ccc(CC#N)cc2)ccc1Cl,-5.23%
17,Cc1ccc(N(CC(=O)N2CCCCCC2)S(=O)(=O)c2ccccc2)cc1,5.51%
18,Cc1ccc(S(=O)(=O)N2CCN(c3ccc(F)cc3)CC2)cc1,-0.856%
19,Cc1ncc(CO)c2c1Oc1nc(-c3cccc(F)c3)nc(SCc3ccncc3)c1C2,-3.74%
20,Cc1nc2nc(NCc3ccc(C(C)C)cc3)nn2c(C)c1Cl,4.18%
